Results taken from PubChem BioAssay AID504466 (National Center for Advancing Translational Sciences (NCATS), 2011).
The campaign covered roughly 330,000 compounds. About 4,200 (1.3%) were called active. Inconclusive results, whose numbers are uncertain, are shown with a selection of clear calls. Calls come from the whole dose curve; as a rule, active = well fitted activation curve with a large enough effect; inconclusive = small, poorly fitted or top-dose-only effect; inactive = no such curve, though single readings can be large or run the other way. A potency beside an inconclusive call is a rough fit, not a confirmed value.

Assay: qHTS screen for small molecules that induce genotoxicity in human embryonic kidney (HEK293T) cells expressing luciferase-tagged ELG1; note: nearly all actives have a fitted effect of over 60% in size; for activity change, positive = activation: % of control where 0% means no effect
Conditions: HEK293T ELG1-luciferase reporter, luminescence, 16 h; series mostly up to 46 µM; activity change, positive = activation: at the top concentration
Outline: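 Screening used a luciferase reporter fused to human ELG1 in HEK293T cells. Luminescence was read on a CCD plate imager after 16 hr exposure and 30 min ONE-Glo incubation.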
Potency is the fitted concentration of half-maximal effect; tags give direction and shape of the fitted curve.

SMILES	Potency	activity change, positive = activation
COc1ccccc1N/C(N)=N/c1nc(C(F)(F)F)cc(=O)[nH]1	inconclusive: 6.51 µM [activator, single point]	–
O=C(Nc1nc(-c2ccc(F)c(F)c2)cs1)Nc1ccc(F)cc1F	inconclusive: 23.1 µM [activator, partial curve, poor fit]	–
COc1ccccc1NC(=O)N(CCN1CCOCC1)Cc1cc2cc(C)cc(C)c2[nH]c1=O	–	inactive: -4.86%
CCCc1cc(C(N)=O)c(NC(=O)c2ccco2)s1	inconclusive: 23.1 µM [activator, partial curve]	–
Cn1cccc1C(=O)Nc1ccc(N2CCOCC2)cc1	inconclusive: 2.59 µM [activator, full curve]	–
COc1cc(NC(=O)c2ccccc2)cc(OC)c1	inconclusive: 18.4 µM [activator, partial curve, poor fit]	–
COc1ccccc1Oc1ncnc2c1cnn2-c1ccccc1	inconclusive: 3.66 µM [activator, full curve, poor fit]	–
COc1ccc(/C=N/NC(=S)Nc2ccccc2[N+](=O)[O-])cc1O	active: 5.17 µM	–
CC(CNC(=O)CCn1ccc2cc(S(=O)(=O)N3CCCC3)ccc21)c1ccccc1 (centres undefined)	–	inactive: -7.59%
CCc1ccc(C(=O)NNC(=O)C2CSC3(C)CCC(=O)N23)cc1 (centres undefined)	–	inactive: 1.41%
CC(C)(C)NC(=O)Nc1ccc(Br)cc1	inconclusive: 11.6 µM [activator, partial curve, poor fit]	–
Cc1ccnc(NC(=O)c2ccccc2NC(=O)c2ccc(Cl)cc2Cl)c1	inconclusive: 29.1 µM [activator, partial curve, poor fit]	–
CC(C)CC(=O)N=Nc1c(O)[nH]c2ccccc12	inconclusive: 20.6 µM [activator, partial curve, poor fit]	–
O=C(Cc1cccs1)NCc1cccc(F)c1	inconclusive: 23.1 µM [activator, partial curve, poor fit]	–
CCOc1ccc(S(=O)(=O)N2CCC(C(=O)NCc3ccccn3)CC2)cc1	–	inactive: -0.057%
Cc1ccc(O)c(NC(=O)c2noc(C(C)C)c2[N+](=O)[O-])c1	inconclusive: 23.1 µM [activator, partial curve, poor fit]	–
CCCCN1C=CC(=C2C(=O)c3ccccc3C2=O)C=C1	inconclusive: 0.184 µM [activator, partial curve, poor fit]	–
CCc1nnc2c3cnn(-c4ccccc4)c3ncn12	inconclusive: 3.26 µM [activator, full curve]	–
O=C(Nc1ccc(F)cc1)c1ccc2c(=O)n3c(nc2c1)CCCCC3	inconclusive: 6.51 µM [activator, partial curve, poor fit]	–
COc1cccc2[nH]c(=O)c(-c3ccccc3)cc12	inconclusive: 20.6 µM [activator, single point]	–
Cn1ccnc1SCC(=O)c1ccc2ccccc2c1	inconclusive: 2.59 µM [activator, full curve]	–
O=C(COC(=O)c1ccccc1O)NNC(=O)c1ccc(Br)cc1	–	inactive: -0.707%
O=c1oc(/C=C/c2ccccc2)nc2sc3c(c12)CCC3	active: 14.1 µM	–
COc1ccccc1-c1noc(-c2cc(OC)c(OC)c(OC)c2)n1	–	inactive: -0.222%
Cc1nn2c(nc1=O)SCC(c1ccccc1)=N2	inconclusive: 13 µM [activator, partial curve]	–
Cc1ccc(SCCSc2nc(C)cc(=O)[nH]2)cc1	active: 23.1 µM	–
O=[N+]([O-])c1cccc(-c2ccc(SCc3ccccn3)nn2)c1	inconclusive: 20.6 µM [activator, partial curve, poor fit]	–

SMILES	Potency	activity change, positive = activation
CC(=O)Nc1ccc(-c2csc(NC(=O)Cc3ccccc3F)n2)cc1	–	inactive: -13.6%
Oc1ccccc1/C=N/NC1=NCCCCC1	inconclusive: 3.66 µM [activator, full curve, poor fit]	–
C/C(CC(=O)Nc1cc(C)ccn1)=N\NC(=O)c1ccc(C(C)(C)C)cc1	–	inactive: 0.198%
Nn1c(SCC(=O)Nc2ccc3c(c2)OCCO3)nncc1=O	–	inactive: 0.214%
CC1CCCN(C2(O)C(=O)Nc3c(C(F)(F)F)cccc32)C1 (centres undefined)	–	inactive: -0.653%
Cc1c(/C=C/C(=O)c2ccccc2O)cnn1C	inconclusive: 18.4 µM [activator, partial curve]	–
Cc1cc2oc(=O)cc(CN3CCC(C)CC3)c2cc1C	inconclusive: 23.1 µM [activator, single point]	–
OCc1c(Cl)nc2ccccn12	–	inactive: 0.737%
CC(=O)Nc1ccc(Nc2cc(C)nc3c(-c4ccccc4)cnn23)cc1	active: 1.46 µM	–
N=C1SC(c2ccccc2)C(=O)N1c1ncc(Cc2ccccc2Cl)s1 (centres undefined)	–	inactive: -1.62%
CCC(=O)c1ccc(/C=C/c2nc3ccccc3n2C)o1	–	inactive: -2.91%
c1ccc(-c2ccc(C3=Nn4c(Cn5nnc6ccccc65)nnc4SC3)cc2)cc1	–	inactive: -1.34%
O=C(NCc1cccs1)c1cc(-c2ccc(O)cc2)on1	inconclusive: 16.4 µM [activator, partial curve, poor fit]	–
CC(C)Sc1nnc(-c2c[nH]c3ccccc23)n1C	inconclusive: 16.4 µM [activator, partial curve]	–
Cn1cc(C(=O)N/N=C/c2cccs2)c2ccccc21	inconclusive: 18.4 µM [activator, partial curve, poor fit]	–
CCN(CC)S(=O)(=O)c1cccc(NC(=O)c2cc3ccccc3o2)c1	–	inactive: -3.88%
Fc1ccc(-c2csc(NC3=NCCC3)n2)cc1	inconclusive: 20.6 µM [activator, partial curve, poor fit]	–
Cc1cc(C)nc(NC(=O)/C=C/c2ccc3c(c2)OCO3)c1	inconclusive: 4.61 µM [activator, full curve]	–
CC(=O)c1ccc(NC(=O)/C(Cl)=C/c2ccccc2)cc1	active: 8.2 µM	–
O=C1C2C3C=CC(C3)C2C(=O)N1CCCCCCN1C(=O)C2C3C=CC(C3)C2C1=O (centres undefined)	inconclusive: 8.2 µM [activator, partial curve]	–
O=C(NC(=S)Nc1cccc2cc(O)ccc12)c1ccco1	–	inactive: 0.119%
Nc1ccc(N2CCCCCC2)cc1	–	inactive: -3.19%
O=[N+]([O-])c1ccccc1COc1ccc(Cl)c2cccnc12	active: 1.64 µM	–
CC(=O)c1sc(NC(=O)c2ccc(F)c(S(=O)(=O)N3CCOCC3)c2)nc1C	–	inactive: 0.0424%
CC1CCC(NC(=O)CSc2nnnn2C)CC1 (centres undefined)	–	inactive: 2.1%
O=C(O)c1ccc(Sc2nnc(-c3cccc(Br)c3)o2)c([N+](=O)[O-])c1	–	inactive: -9.77%
COC(=O)c1cc(Cl)c(NC(=O)/C=C/c2ccc(Cl)cc2)cc1OC	–	inactive: 8.05%

SMILES	Potency	activity change, positive = activation
COC(=O)c1ccc(OCC(=O)N2CCCc3ccccc32)cc1	–	inactive: 1.09%
COC(=O)C(=N/Nc1ccccc1C(=O)OC)/C(C)=N/O	–	inactive: -2.08%
O=C(N/N=C/c1cccc(OCc2ccccc2)c1)c1cccs1	–	inactive: 5%
CC(C)(C)NC(=O)c1ccccc1-c1nc2ccccc2s1	–	inactive: -2.78%
O=C(Nc1ccc2c(c1)OCO2)C1CCCCC1	inconclusive: 18.3 µM [activator, partial curve, poor fit]	–
CCn1c(C)csc1=NC(=O)c1ccccc1	–	inactive: 7.18%
Cc1ccc(/C=C/C(=O)Nc2cc(C)on2)cc1	inconclusive: 1.46 µM [activator, full curve, poor fit]	–
C/C(=N\NC(=O)C(C)n1nc(C)c([N+](=O)[O-])c1C)c1ccccc1O (centres undefined)	inconclusive: 25.9 µM [activator, partial curve, poor fit]	–
S=c1[nH]c2cc3ccccc3cc2[nH]1	inconclusive: 13 µM [activator, single point]	–
Fc1ccc(-c2nnn3c2nc(NCc2ccccc2)c2ccccc23)cc1	–	inactive: 0.102%
O=C(c1ccc(-c2cccc(C(F)(F)F)c2)o1)N1CCOCC1	active: 16.4 µM	–
CCOc1cc(/C=N/NC(=O)c2cccs2)cc([N+](=O)[O-])c1O	inconclusive: 20.6 µM [activator, partial curve, poor fit]	–
c1ccc(-c2cc3cc4c(cc3cn2)OCO4)cc1	inconclusive: 2.59 µM [activator, partial curve]	–
COc1cccc(N/C=C/C(=O)c2ccc(Cl)cc2)c1	active: 1.16 µM	–
Cn1c(SCC(=O)Nc2ccccc2)nc2c([nH]c3ccccc32)c1=O	inconclusive: 29.1 µM [activator, single point]	–
O=C1N=C2N(CCN3CCCCC3)c3ccccc3N2/C1=C\c1ccc([N+](=O)[O-])o1	inconclusive: 18.3 µM [activator, partial curve, poor fit]	–
O=C1C(C2=NC(C(=O)O)C3C(=O)N(c4ccc(Cl)cc4)C(=O)C23)=C(O)c2ccccc21 (centres undefined)	–	inactive: 2.78%
O=C1N/C(=C/c2ccc(Br)s2)C(=O)N1c1ccccc1	inconclusive: 20.6 µM [activator, single point]	–
CCC1CCCCN1CC(=O)Nc1ccc2c(c1)OCCO2 (centres undefined)	–	inactive: 7.2%
O=C(N/N=C\C=C\c1ccco1)c1cc(-c2ccc3ccccc3c2)n[nH]1	inconclusive: 18.4 µM [activator, partial curve, poor fit]	–
CCc1c(C)sc(NC(=O)Cn2nc(C(F)(F)F)c3c2CCCC3)c1C#N	–	inactive: 6.24%
CC(C)(O)C(=O)N=Nc1c(O)[nH]c2ccccc12	inconclusive: 23.1 µM [activator, partial curve, poor fit]	–
CCCn1c(-c2ccc(OC)cc2)nc2ccccc21	–	inactive: -2.12%
O=C(CN1CCSC1=O)N1CCN(S(=O)(=O)c2ccc(F)cc2)CC1	–	inactive: -0.388%
O=C1CN(C(=O)COC(=O)CCS(=O)(=O)c2ccccc2Cl)c2ccccc2N1	–	inactive: 0.0551%
